Test results from the supplement of paper PMC4466236.
Whole data set: some 33,000 sequences, median “E-score (dimensionless, -0.5 to 0.5)” near -0.058, cut for the highest 2% near 0.35. The list shows a part of the results.

System: MvaT
Assay: PBM 8-mer E-score (mean of HK and ME arrays) (E-score (dimensionless, -0.5 to 0.5)); higher = stronger relative binding preference; most listed sequences are background and not binding sites
Procedure, shortened: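 Full-length P. aeruginosa MvaT, with glutathione S-transferase fused to its N-terminus (cloned into pTH6838 by isothermal assembly), was tested by protein binding microarray using a previously described protocol. Two universal double-stranded 60-mer arrays (ME and HK) were used, each with a constant 25-mer primer region and a variable 35-mer region covering all 8-mers. The rank-based 8-mer E-score (-0.5 to 0.5) is the mean of the two arrays, parsed with a custom Python script.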

| Sequence | PBM 8-mer E-score |
| --- | --- |
| CAAACATA | 0.239 |
| ATGTTCGG | -0.0503 |
| ACGTGATC | -0.0703 |
| CCTCAACG | -0.151 |
| GACCCCCA | -0.312 |
| ATCATTCC | -0.0603 |
| CTACAAAC | 0.0234 |
| ACCTAACT | 0.17 |
| GAATCCGA | 0.00482 |
| GATGTGGA | -0.0636 |
| AGGTGAAC | -0.0221 |
| CTTCGTAC | 0.0657 |
| GGCTATAC | -0.116 |
| AACTTTTG | 0.236 |
| AATCTCGC | 0.152 |
| AAGCACAA | 0.0557 |
| CAGCATTA | 0.186 |
| CTAGCCAG | -0.326 |
| ACGGCATA | 0.13 |
| ACCTTTTG | 0.024 |
| CTCCAGTC | -0.167 |
| AGTGAGGG | -0.315 |
| CGGAAACG | -0.182 |
| TCGAGCCA | -0.31 |
| ATCCACTC | -0.167 |

| Sequence | PBM 8-mer E-score |
| --- | --- |
| ATTAGCGC | 0.0102 |
| ACCCGCCT | -0.136 |
| AACAGTTG | 0.0981 |
| AAGGACTC | -0.238 |
| AAACGTAG | -0.0334 |
| CAAAGACA | -0.0437 |
| ACGTCCTA | -0.0341 |
| GAACGCAC | -0.133 |
| AGGATGCA | -0.0501 |
| ATCCGTTA | 0.103 |
| AGTAATCA | 0.189 |
| GAACCGGA | -0.213 |
| CGACCGAC | -0.211 |
| TGGGCGAA | -0.0675 |
| TATTCGGA | -0.000615 |
| TCTCAGCA | -0.127 |
| ACAAATTG | 0.137 |
| ATATCCGG | 0.0998 |
| CCTGGTTA | -0.0811 |
| TGGCCACA | -0.107 |
| GCTATCAC | -0.038 |
| GTACGCGA | -0.0165 |
| ATGCAGGG | -0.155 |
| AAAGCTAA | -0.000957 |
| GGACCTGA | -0.207 |

| Sequence | PBM 8-mer E-score |
| --- | --- |
| CGATCGCA | -0.0847 |
| AGGTCCGC | -0.229 |
| ACAAATAA | 0.38 |
| CGCTGGGC | -0.291 |
| CAGTCGGG | -0.177 |
| TACGCACA | 0.0888 |
| CCACTCGC | -0.201 |
| GACCCTAA | -0.19 |
| GAGTTTAA | 0.235 |
| CGTATTAC | 0.17 |
| CGCTTGAC | -0.22 |
| ATTCAGGG | 0.0144 |
| CGCATTGA | -0.126 |
| CGGATGAC | -0.186 |
| CTCTGAAC | -0.131 |
| GCCAGGGC | -0.268 |
| CTCTGCCC | -0.164 |
| AAGGACTA | -0.00864 |
| AGCGGGCC | -0.323 |
| CGCCCTCC | -0.309 |
| TACGGTGA | -0.0369 |
| CACCAGGA | -0.0879 |
| CCGAACAA | 0.0435 |
| AAGGTTGA | -0.0613 |
| CTCAGCAG | -0.226 |

| Sequence | PBM 8-mer E-score |
| --- | --- |
| CGTTCACA | -0.112 |
| AGGGGGAA | -0.164 |
| AATCTAGT | 0.0292 |
| TCAGAAAA | -0.0512 |
| CCCCTCTA | -0.282 |
| CCTGCTGA | -0.186 |
| AAGGTCAC | -0.175 |
| AACTACAG | 0.0893 |
| GAGCAAGC | -0.2 |
| ACTTCTTC | 0.0165 |
| CATATATG | 0.449 |
| CGCAGGAC | -0.325 |
| CGCCAATC | -0.0439 |
| ACCGTCAG | -0.19 |
| CAAACTCA | 0.0244 |
| TAGGGCCA | -0.0889 |
| AAAAGTTG | 0.221 |
| TAGGCTGA | -0.18 |
| ATTAGTTC | 0.297 |
| ACCTTTCC | -0.0591 |
| CCCACTCG | -0.0719 |
| CGAGGGGC | -0.302 |
| CAAGGAAA | -0.0687 |
| ATCGGACG | -0.232 |
| GGTGAAGA | -0.00334 |

| Sequence | PBM 8-mer E-score |
| --- | --- |
| ACTAGCGG | 0.021 |
| ATGCTCCC | -0.108 |
| GTTTTCCA | 0.00845 |
| TAGAGTCA | 0.01 |
| AAAAGACT | 0.105 |
| AATGTCAT | 0.251 |
| GACGAGAC | -0.168 |
| CGCTCTAA | 0.0519 |
| TATGTTAA | 0.344 |
| GGCCCTGA | -0.181 |
| CGCGACTA | -0.056 |
| GTGACGGA | -0.125 |
| CAGCCGGG | -0.258 |
| ATACAGCA | 0.172 |
| TACTTGGA | 0.157 |
| TCCTTCCA | -0.27 |
| CATTATTC | 0.363 |
| ATCCTGCG | -0.142 |
| ACACAAGG | -0.0964 |
| ATAGGTCG | -0.0503 |
| GGGAAGAA | -0.11 |
| ATGCCCAT | -0.116 |
| ACTGCACA | 0.039 |
| CATCGTCG | -0.131 |
| AGTCGCCA | -0.174 |

| Sequence | PBM 8-mer E-score |
| --- | --- |
| CTCTTAAG | 0.0344 |
| ATCCCCGG | -0.27 |
| CTTTGAGC | -0.102 |
| CGAAGACC | -0.222 |
| ACTGCACT | 0.0411 |
| CGCAAAAC | 0.0266 |
| ACGCCTTC | -0.283 |
| AGACCTCT | -0.233 |
| ATAGGTAA | 0.173 |
| CTTGAGAC | 0.0307 |
| CATGACCG | -0.191 |
| CACGAATG | -0.0221 |
| AGTTAATA | 0.406 |
| AGACAGCT | -0.0875 |
| AGGGTGAT | -0.16 |
| CGAATCGC | -0.202 |
| CTCACCGC | -0.185 |
| GCACCCGC | -0.299 |
| TAAAGACA | 0.132 |
| CCACCAAC | 0.00191 |
| CGCCTCTC | -0.305 |
| GAATGCTC | -0.187 |
| ATGACAAT | 0.125 |
| CTCATAAC | -0.0784 |
| TCGCTACA | -0.152 |

| Sequence | PBM 8-mer E-score |
| --- | --- |
| ATGAATGC | 0.0337 |
| ACCGGCGT | -0.213 |
| CCCAGTCG | -0.131 |
| ATGCTACG | -0.157 |
| AAACGTAC | 0.0424 |
| TCTCGTAA | -0.0867 |
| GTATTCAC | 0.184 |
| CCGTGCTA | -0.141 |
| ACTCAGCC | -0.165 |
| AATTTCTG | 0.0666 |
| GAGCATAA | 0.0834 |
| AAATTTAA | 0.408 |
| ATACGTAG | 0.107 |
| GTTCTGCA | 0.0116 |
| CAAGCGCA | -0.135 |
| CTTCTGAC | -0.0267 |
| CCATAGGC | -0.209 |
| ACGAGCTG | -0.237 |
| TGCTCCAA | -0.104 |
| ACATGAAC | 0.123 |
| ATCACAGG | -0.124 |
| CGGTTATC | 0.0552 |
| GGTAGATA | 0.0674 |
| ATAAACAG | 0.257 |
| CAATCACG | -0.281 |

| Sequence | PBM 8-mer E-score |
| --- | --- |
| TGTAAGAA | 0.162 |
| TAACTAGA | 0.221 |
| AATAATGG | 0.372 |
| AGAGACCA | -0.0266 |
| AACGACTA | -0.00306 |
| TCCGGCAA | -0.241 |
| CGAGGTAA | -0.0716 |
| CTTAGGTA | -0.0414 |
| AACCCGCT | -0.0928 |
| ACTGAATA | 0.235 |
| AAATACTT | 0.246 |
| GGCGTAAC | -0.0695 |
| ATGATACA | 0.16 |
| ACATACGC | -0.163 |
| AGTAGCAT | 0.0761 |
| AAACTTGA | 0.179 |
| ACGCACTC | -0.0389 |
| AGTTGCAA | 0.176 |
| AAGACTCA | -0.0174 |
| ACTTTTCT | 0.167 |
| ATGCTGCA | 0.0391 |
| GCCCCCCA | -0.333 |
| GATTGGCC | -0.163 |
| AAACAGTT | 0.249 |
| ACTGCCGA | -0.128 |

| Sequence | PBM 8-mer E-score |
| --- | --- |
| CACACAAC | 0.028 |
| GCTACAGC | -0.215 |
| GATACAGC | -0.0898 |
| CTGATTGC | 0.106 |
| GTCAGATA | 0.0678 |
| ACGCTCAC | -0.242 |
| AAATCGGG | -0.0104 |
| ATATCTAA | 0.336 |
| CTCGGAGA | -0.0569 |
| TCTTAAGA | 0.253 |
| GCCCAACC | -0.141 |
| CAGACACG | -0.158 |
| ATATTGTC | 0.346 |
| CTCCAATC | -0.107 |
| AAGAGCCT | -0.147 |
| ATGCTAAG | 0.0822 |
| AACGTGTG | -0.0783 |
| AAGTGCCC | -0.067 |
| CTATGGGA | -0.222 |
